In PubChem BioAssay AID624170 (National Center for Advancing Translational Sciences (NCATS), 2012):
Screen size: about 410,000 compounds; about 850 (0.21%) were called active. Inconclusive results, whose numbers are uncertain, are shown with a selection of clear calls. Calls follow the shape of the dose curve; as a rule, active = well fitted inhibition curve with a large enough effect; inconclusive = small, poorly fitted or top-dose-only effect, or another doubt; inactive = no such curve, though single readings can be large or run the other way. Potencies of inconclusive entries are doubtful fits and often do not repeat.

What follows are compounds tested against Glutaminase kidney isoform, mitochondrial (Homo sapiens) (UniProt O94925) (assay: qHTS for Inhibitors of Glutaminase (GLS)). Details: GLS enzymatic activity, qHTS titration; series mostly up to 45.5 µM.
In short: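 hKGA in 45 mM KH2PO4 (pH 8.2), 0.02% Tween-20 with compound, then 1mM L-Glutamine (stock as added) plus glutamate oxidase/HRP/Amplex red coupling mix. Fluorescence read initially and after 30 min at RT; signal change reflects glutamate formation.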
Potency is read from the fitted curve at half-maximal effect; tags tell the direction and shape of the fitted curve.

Sequence of UniProt O94925 (O94925 whole entry, looked up, canonical isoform): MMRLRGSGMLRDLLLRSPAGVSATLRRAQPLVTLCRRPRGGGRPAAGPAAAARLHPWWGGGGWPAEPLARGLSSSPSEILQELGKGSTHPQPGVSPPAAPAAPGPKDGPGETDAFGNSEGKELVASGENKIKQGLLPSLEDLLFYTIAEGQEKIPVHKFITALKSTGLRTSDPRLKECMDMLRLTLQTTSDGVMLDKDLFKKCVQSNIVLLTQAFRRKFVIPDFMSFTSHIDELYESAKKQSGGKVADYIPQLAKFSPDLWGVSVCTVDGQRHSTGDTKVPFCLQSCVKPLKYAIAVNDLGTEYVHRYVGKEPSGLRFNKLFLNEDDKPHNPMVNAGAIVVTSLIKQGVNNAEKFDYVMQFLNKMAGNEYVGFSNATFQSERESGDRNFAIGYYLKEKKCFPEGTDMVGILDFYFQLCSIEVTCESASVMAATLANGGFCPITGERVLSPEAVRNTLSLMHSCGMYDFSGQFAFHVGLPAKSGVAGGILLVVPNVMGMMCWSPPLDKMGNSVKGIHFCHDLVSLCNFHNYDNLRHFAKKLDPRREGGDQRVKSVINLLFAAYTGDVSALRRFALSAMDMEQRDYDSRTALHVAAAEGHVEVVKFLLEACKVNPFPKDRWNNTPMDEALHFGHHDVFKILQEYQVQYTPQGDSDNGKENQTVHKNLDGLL

Potency, active:
CCOC(=O)Cc1csc(N/N=C\c2cccc(Br)c2)n1 20 µM

Potency, inconclusive:
N#Cc1c[nH]n2c(NC3CCCCC3)c(-c3ccccc3F)nc12 11.2 µM [inhibitor, partial curve], O=C(O)c1ccccc1NN=C1CCCCC1 15.8 µM [inhibitor, single point], N#CC1C(C#N)N2CCCN2C1c1ccc(Br)cc1 (centres undefined) 12.6 µM [inhibitor, single point], CC1=C(O)C(=O)C(C2=C(O)C(=O)C(C)=C(O)C2=O)=C(O)C1=O 1.58 µM [inhibitor, full curve, poor fit], CC(c1ccccc1)n1c(-c2ccc(C(C)(C)C)cc2)n[nH]c1=S (centres undefined) 17.8 µM [inhibitor, single point], Cc1ccc(/C=[N+](\[O-])c2ccc(N(C)C)cc2)c2nsnc12 11.2 µM [inhibitor, partial curve], COc1cccc2c(SCC(=O)N/N=C/c3ccc(O)c(O)c3)cc(C)nc12 28.2 µM [inhibitor, single point], Cc1ccc(S(=O)(=O)CCC(=O)N2CCN(c3ccccc3O)CC2)cc1 35.5 µM [inhibitor, single point], O=C(Nc1cc(Cl)ccc1O)C1CC(c2c(F)cccc2Cl)=NO1 (centres undefined) 35.5 µM [inhibitor, single point], O=C(Oc1ccccc1Cl)c1ccc(N2CCOCC2)c([N+](=O)[O-])c1 20 µM [inhibitor, single point], Cc1nc(C)c(-c2csc(Nc3ccc(O)c(C(=O)O)c3)n2)s1 7.94 µM [inhibitor, partial curve, poor fit], CC(C)(C)c1ccc(/C=N/Nc2nncn2N)cc1 11.2 µM [inhibitor, partial curve, poor fit], CC(OC(=O)c1ccc(-c2ccc(O)cc2)cc1)C(=O)NC1CCCCC1C (centres undefined) 15.8 µM [inhibitor, single point], COc1cccc(-n2c(SCC(=O)N3CCOCC3)nc3c([nH]c4ccccc43)c2=O)c1 35.5 µM [inhibitor, single point], CCCn1c(N)c(N2CCCCC2)c(=O)n(CC(=O)Nc2ccccc2C(F)(F)F)c1=O 8.91 µM [inhibitor, partial curve], O=C1N=c2ccccc2=C1c1sc(NS(=O)(=O)Cc2ccccc2)nc1O 22.4 µM [inhibitor, single point], O=C1/C(=C/c2ccncc2)SC(=S)N1N1CCOCC1 35.5 µM [inhibitor, single point], Cc1oc2c(cc(NS(=O)(=O)c3ccc(C(C)C)cc3)c3ccccc32)c1C(=O)O 25.1 µM [inhibitor, single point], NC(=O)COc1ccc(-n2cnnn2)cc1 20 µM [inhibitor, single point], O=C1N=c2ccc([N+](=O)[O-])cc2=C1c1sc(=O)[nH]c1O 35.5 µM [inhibitor, single point], COC(=O)c1ccccc1NC(=O)C(C)Oc1ccccc1 (centres undefined) 35.5 µM [inhibitor, single point], COC(=O)c1ccc(N2NC(=O)/C(=C/c3cc(OC)c(OC)c(OC)c3)C2=O)cc1 14.1 µM [inhibitor, single point], c1coc(CNc2nc(-c3cccs3)cs2)c1 17.8 µM [inhibitor, single point], CC(/C=N/n1c(-c2ccncc2)n[nH]c1=S)=C\c1ccco1 15.8 µM [inhibitor, single point], O=S(=O)(NC1CCc2ccccc21)c1ccc(S(=O)(=O)N2CCCC2)cc1 (centres undefined) 3.55 µM [inhibitor, single point], COc1cccc2cc(C(=O)C3=C(O)C(=O)N(c4cc(C)on4)C3c3cccs3)oc12 (centres undefined) 35.5 µM [inhibitor, single point], Cc1ccc(C2=NOC(=O)/C2=C\c2ccc(C)o2)cc1 1.78 µM [inhibitor, full curve, poor fit], COc1ccc(/C=N/OCC(=O)Nc2nc3ccccc3s2)cc1OC 22.4 µM [inhibitor, single point], CN(C)Cc1cn(CCC(=O)O)c2ccccc12 3.55 µM [inhibitor, single point], COC(=O)c1ccccc1N=Nc1c(N)n[nH]c1N 8.91 µM [inhibitor, partial curve]

Potency, inactive:
CCS(=O)(=O)N1CCc2cc(C(=O)Nc3cccc(C)c3C)ccc21, COc1cc(NC(=O)CNC(=O)Cn2cnc3sc(C)c(C)c3c2=O)cc(OC)c1OC, CC1=CC(c2ccccc2)n2nc(N3C(=O)c4ccccc4C3=O)nc2N1 (centres undefined), O=C(O)/C=C/c1ccc(S(=O)(=O)NCc2cccnc2)cc1, Cc1ccc2oc3c(c(=O)c2c1)C(c1ccccc1F)N(CCCN(C)C)C3=O (centres undefined), Cc1ccc(-c2cc(C(=O)N3CCOCC3)no2)cc1, Cc1cc(NC(=O)c2cc(-c3ccccn3)nc3ccc(Br)cc23)no1, CCOC(=O)C1=C(C)N=c2s/c(=C/c3ccc(OCC(=O)O)cc3)c(=O)n2C1c1cc(OC)c(OC)c(OC)c1 (centres undefined), Cc1ccc(S(=O)(=O)N2CCC(C(=O)NCCCn3ccnc3)CC2)cc1, O=C(NC(Cc1ccccc1)C(=O)O)/C(=C/c1ccccc1)NC(=O)c1cccc(Br)c1 (centres undefined), COc1ccc(C2C(C(C)=O)=C(O)C(=O)N2CCc2ccccc2)c(OC)c1 (centres undefined), O=C1C(Br)=C(c2ccccc2)C(c2ccccc2)=C1c1ccccc1, COc1cccc(NC(=O)CSCc2cc(=O)c3ccc(C)c(C)c3[nH]2)c1
